The other results are listed elsewhere or left out. Many values rest on one well or one pass, so single values are uncertain.
Each compound was assayed on A101D (assay: cell count relative to DMSO control; melanoma cells; higher = more viable cells). Details: library dose: standard library concentration; 72 h.
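Further: cells treated in 1,536-well plates, then fixed and DAPI-stained, with nuclei counted from automated high-throughput microscope images.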

Compound | cell count [%]
C[C@]12O[C@H](C[C@]1(O)CO)n1c3ccccc3c3c4c(c5c6ccccc6n2c5c31)CNC4=O [Lestaurtinib] + Cn1cc(/C=C2\C(=O)Nc3cccnc32)c2ccccc21 [GW441756] (first compound 0.02 µM, partner dose 2 µM) | 65.4
C[C@]12O[C@H](C[C@]1(O)CO)n1c3ccccc3c3c4c(c5c6ccccc6n2c5c31)CNC4=O [Lestaurtinib] + O=C1NC(=O)/C(=C/c2ccc(-c3ccc(F)cc3O)o2)S1 [AS252424] (first compound 0.02 µM, partner dose 5 µM) | 75.7
N.N.[Cl][Pt][Cl] [cisplatin] + Cc1ccc(NC(=O)c2cccc(N(C)C)c2)cc1NC(=O)c1ccc(O)cc1 [ZM336372] (first compound 8 µM, partner dose 10 µM) | 78.5
C[As](C)SC[C@H](NC(=O)CC[C@H](N)C(=O)O)C(=O)NCC(=O)O [Darinaparsin] + Cc1cc(SCc2sc(-c3ccc(C(F)(F)F)c(F)c3)nc2C)ccc1OCC(=O)O [GW0742] (first compound 2 µM, partner dose 10 µM) | 94.5
Cn1cc(C2=C(c3cn(C4CCN(Cc5ccccn5)CC4)c4ccccc34)C(=O)NC2=O)c2ccccc21 [Enzastaurin] + C=C(c1ccc(C(=O)O)cc1)c1cc2c(cc1C)C(C)(C)CCC2(C)C [Bexarotene] (first compound 4 µM, partner dose 10 µM) | 65.4
C[C@]12O[C@H](C[C@]1(O)CO)n1c3ccccc3c3c4c(c5c6ccccc6n2c5c31)CNC4=O [Lestaurtinib] + C[C@@H](Oc1cc(-c2cnn(C3CCNCC3)c2)cnc1N)c1c(Cl)ccc(F)c1Cl [Crizotinib] (first compound 0.02 µM, partner dose 1 µM) | 77.8
C[C@]12O[C@H](C[C@]1(O)CO)n1c3ccccc3c3c4c(c5c6ccccc6n2c5c31)CNC4=O [Lestaurtinib] + CC(C)(C)c1cnc(CSc2cnc(NC(=O)C3CCNCC3)s2)o1 [SNS-032] (first compound 0.02 µM, partner dose 0.05 µM) | 57.4
Cn1cc(C2=C(c3cn(C4CCN(Cc5ccccn5)CC4)c4ccccc34)C(=O)NC2=O)c2ccccc21 [Enzastaurin] + O=C(O)C(=O)Nc1sc2c(c1C(=O)O)CCNC2 [TCS401] (first compound 4 µM, partner dose 8.33333 µM) | 67.7
N.N.[Cl][Pt][Cl] [cisplatin] + COCC[n+]1c2c(n(Cc3cnccn3)c1C)C(=O)c1ccccc1C2=O [YM155] (first compound 8 µM, partner dose 0.002 µM) | 63.7
C[C@]12O[C@H](C[C@]1(O)CO)n1c3ccccc3c3c4c(c5c6ccccc6n2c5c31)CNC4=O [Lestaurtinib] + C=CCNC1=C2C[C@@H](C)C[C@H](OC)[C@H](O)[C@@H](C)/C=C(\C)[C@H](OC(N)=O)[C@@H](OC)/C=C\C=C(/C)C(=O)NC(=CC1=O)C2=O [Tanespimycin] (first compound 0.02 µM, partner dose 0.01 µM) | 67.9
C[C@]12O[C@H](C[C@]1(O)CO)n1c3ccccc3c3c4c(c5c6ccccc6n2c5c31)CNC4=O [Lestaurtinib] + OCc1c[nH]c2ccccc12 [Indole-3-carbinol] (first compound 0.02 µM, partner dose 4 µM) | 81.3
C[As](C)SC[C@H](NC(=O)CC[C@H](N)C(=O)O)C(=O)NCC(=O)O [Darinaparsin] + Nc1cccc2c1CN(C1CCC(=O)NC1=O)C2=O [lenalidomide] (first compound 2 µM, partner dose 5 µM) | 122
C[As](C)SC[C@H](NC(=O)CC[C@H](N)C(=O)O)C(=O)NCC(=O)O [Darinaparsin] + CC(C)(C)c1cnc(CSc2cnc(NC(=O)C3CCNCC3)s2)o1 [SNS-032] (first compound 2 µM, partner dose 0.05 µM) | 68.9
Cn1cc(C2=C(c3cn(C4CCN(Cc5ccccn5)CC4)c4ccccc34)C(=O)NC2=O)c2ccccc21 [Enzastaurin] + C[C@]1(O)C[C@@H](c2nc(-c3ccc4ccc(-c5ccccc5)nc4c3)c3c(N)nccn32)C1 [OSI906] (first compound 4 µM, partner dose 2 µM) | 53.5
Cn1cc(C2=C(c3cn(C4CCN(Cc5ccccn5)CC4)c4ccccc34)C(=O)NC2=O)c2ccccc21 [Enzastaurin] + CO[C@H]1C[C@@H]2CC[C@@H](C)[C@@](O)(O2)C(=O)C(=O)N2CCCC[C@H]2C(=O)O[C@H]([C@H](C)C[C@@H]2CC[C@@H](OCCO)[C@H](OC)C2)CC(=O)[C@H](C)/C=C(\C)[C@@H](O)[C@@H](OC)C(=O)[C@H](C)C[C@H](C)/C=C/C=C/C=C/1C [everolimus] (first compound 4 µM, partner dose 0.1 µM) | 89.6
